In the supplement of paper PMC10126150:
Sequences with one replicate were seen in a single cluster, so their values are uncertain.

Tested on: ATP
Assay: switch fluorescence ratio, 500 uM ATP over buffer (Cy3 cluster intensity, sum of 5 cycles each) (fold (ratio)); higher = stronger signal-on switching upon ATP binding; sequences stand for … in TCGTCGGCAGCGTCAGATGTGTATAAGAGACAGTTTTTTTTTTTTTTTTTTTTTTTTT…TC
Conditions: aptamer strand: ATP DNA aptamer (quencher-CACCTGGGGGAGTATTGCGGAGGAAGG + anchor), 100 nM annealed; ATP concentration: 500 uM; one replicate
Method in brief: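 Exposure to 500 uM ATP lasted 15 min at 22 °C before imaging, and a selection-buffer image was taken beforehand, for Cy3-labelled switching-strand clusters on a modified Illumina MiSeq flow-cell annealed to 100 nM quencher-labelled ATP aptamer. Five buffer/ATP cycles were run with NaOH stripping and re-annealing between them. The fluorescence ratio per cluster is summed target-cycle over summed buffer-cycle Cy3 intensity, averaged per switch-domain sequence. Clusters outside 100-1000 RFU were excluded.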

Row | Sequence | switch fluorescence ratio
1 | CCGTTCCACA | 1.11
2 | AGGTGGCTTG | 1.01
3 | TAAATAAGGG | 0.981
4 | CGGGTGACAG | 0.987
5 | TCCTCTAAAT | 1.28
6 | CCTCATTAAG | 2.7
7 | AGAGAGTTGT | 1
8 | GTTAGTGGGA | 1.09
9 | AAGATCAATC | 1.04
10 | GCGCGAACAG | 1.02
11 | AGTAGGTGT | 1.15
12 | AGTTAGATGT | 1.03
13 | TCATATATTC | 1.01
14 | TAAAAGGTA | 1.03
15 | GACAAGAGGT | 1.03
16 | TGTCCGGGTA | 1.61
17 | TGGTAAAAGA | 1.04
18 | TCGGGCGCTA | 1.02
19 | TTTAGAAACA | 0.974
20 | CGCTTTTCGG | 0.981
21 | TACGTATTGT | 1.11
22 | CCAGGCGTCT | 0.99
23 | ATGTGTGGAT | 0.981
24 | AATAAATGTT | 1.02
25 | CGACGCGGGG | 1.48
26 | AGATGTATGA | 0.979

Row | Sequence | switch fluorescence ratio
27 | GACAGGGTGT | 1.16
28 | CGTCAGTTTA | 0.997
29 | ACAAGGCCGG | 1
30 | ATGCTCTGGT | 0.95
31 | GGTGCAGCAG | 1.01
32 | ATCCGGTACA | 0.978
33 | TGGATTCGAC | 0.955
34 | CTAGCCTAGA | 1
35 | AGACGGAAAT | 1.07
36 | TCCCTGTAAT | 1.22
37 | TAGGGCAAAA | 1.02
38 | GAGCAAAGAA | 1.07
39 | TTAGATTGAT | 1.01
40 | TCTATTGTGG | 0.998
41 | AGCCAGCG | 1.03
42 | GGCCCCCTCT | 0.994
43 | AATGACTACG | 1.02
44 | CGTAAATGGA | 0.974
45 | GGCGAGCGGA | 0.967
46 | CGGGGAGGTT | 0.979
47 | AAGAATCTTG | 1.01
48 | GTAGTCGCGT | 0.985
49 | ATTACCATGT | 1
50 | TGCATAGGTT | 0.95
51 | CTTGGTAGTT | 0.918
52 | CCGTCAGGAG | 1.01

Row | Sequence | switch fluorescence ratio
53 | GGGCTTGGAT | 0.984
54 | TATAAGAAC | 1.05
55 | TTGAGCGCGT | 0.98
56 | ATCGAATTCT | 0.997
57 | GGGATTAAAC | 1.06
58 | ATAAGGGTCG | 0.98
59 | CGAGGACAAT | 2.4
60 | CGGGGACAGT | 1.03
61 | ATTTCGGTAT | 1.02
62 | GAAAACGACG | 1.07
63 | CAATGCCAGG | 1.22
64 | CTATACTCGC | 1.28
65 | ATGCAAGGTA | 0.998
66 | CGTCAATCTC | 3.43
67 | TAGAGTAGGT | 1.04
68 | ACGTATTCGA | 1.07
69 | ACTGTTGGA | 0.95
70 | CCTTAGCCCG | 1.28
71 | GCATTATCGA | 1.02
72 | AATCGTGAAG | 0.949
73 | CAGAGGGCCT | 1.04
74 | TACGTAACTG | 1.3
75 | TGGCTTTCTA | 1
76 | AACAGTTTTG | 1
77 | TGTAAAGATA | 0.99
78 | TGATTCAGAC | 0.974

Row | Sequence | switch fluorescence ratio
79 | TGATGAGATA | 1.02
80 | TTAGTGTTTC | 0.99
81 | CTACCCAGAA | 1.01
82 | ATTCACCT | 1.2
83 | TTTTGAAGC | 1.02
84 | GCTATGCTG | 1.22
85 | CCGGACCTAT | 1.14
86 | GTCAATGAGT | 0.974
87 | AGGAAGGTTA | 1.02
88 | TTCAATCAGT | 0.994
89 | CGGAAGATGG | 0.957
90 | CCTGAGAGAA | 0.993
91 | CGTTATGTT | 1
92 | TATTATTCGA | 1.04
93 | TCTGGTTCTG | 0.976
94 | TGCCTTGAGG | 1.01
95 | ATCAGCTGGT | 0.99
96 | CCCGAAAGTG | 1.19
97 | GAAGCGCATT | 1.11
98 | GATGGACGGC | 0.997
99 | GATCACGCAT | 1.5
100 | TCTTGAAGCA | 1
101 | CTAGTATCTG | 0.958
102 | GCATAGTTAC | 1.14
103 | TGGCCTCCTG | 1.03
104 | TGACTACAAA | 1

Row | Sequence | switch fluorescence ratio
105 | TGACCCGTGA | 1.11
106 | TGATGAGGTG | 0.994
107 | GCTATCCCCT | 1.09
108 | TTTTATCAAC | 1.03
109 | TCTCAGACCG | 0.98
110 | ATGCACGAAT | 1.02
111 | AGACTATTCA | 1.01
112 | TATGGGGCGT | 1.01
113 | ATAGAGGAGC | 0.937
114 | GAAGCATCGG | 1.15
115 | CGTAAATCGA | 1
116 | TGAGATAATT | 1.04
117 | GGGTCACATC | 1.02
118 | TCACACTTTA | 1.01
119 | TCCCTGTTAA | 1.04
120 | TTATCCAAGG | 1.05
121 | AAAGCGTCTG | 1.01
122 | TGGGACTAAT | 0.991
123 | ACGTAAGCAC | 1.11
124 | GGGAGTGACA | 0.995
125 | CGACCGGGGT | 1.04
126 | CTGGTGGGCA | 0.97
127 | GAAACTTAGA | 0.99
128 | GGAACGCAAG | 1.14
129 | TAACAGCTTT | 1.06
130 | ATCCTCGGG | 1.02

Row | Sequence | switch fluorescence ratio
131 | ATCGTCGTAT | 0.975
132 | TTCAGGGCTG | 0.872
133 | ATTAAGTAGT | 1
134 | AGCGGTGTTC | 0.989
135 | TCGCCTGATC | 1.04
136 | GGACGGAGCA | 1.33
137 | ACAAAACGTA | 0.984
138 | TACCATACAA | 1.26
139 | TAGTTGGACG | 0.974
140 | TAAAGCGGCC | 1.2
141 | GGCTAGCTAT | 1.03
142 | GAGGTTATTT | 1.16
143 | CATTAGGCC | 1.01
144 | CCTGGCAGCT | 1.15
145 | AGCAGATCGA | 1.13
146 | CCAATCGGCG | 1.03
147 | GGGTCTGAGA | 0.987
148 | TGCAGACGTG | 1.02
149 | CCACTATCGA | 1.08
150 | TGCTGGGAGT | 0.981
151 | TGACTGCTTC | 1
152 | ATTCCCATAG | 1.01
153 | CCTATCCATA | 1.11
